Measured values as given in article PMC4951255.
These are yes or no findings as the source states them, for the method shown. Binding seen in cells or lysates may run through a third protein. Some entries that bind do so weakly or less than the wild type.

Amino acid sequences for entries named in this document (tags omitted). A change or cut given only in a name is not applied to a line headed by its entry. Residues count along the entry.
UniProt Q9H7D7: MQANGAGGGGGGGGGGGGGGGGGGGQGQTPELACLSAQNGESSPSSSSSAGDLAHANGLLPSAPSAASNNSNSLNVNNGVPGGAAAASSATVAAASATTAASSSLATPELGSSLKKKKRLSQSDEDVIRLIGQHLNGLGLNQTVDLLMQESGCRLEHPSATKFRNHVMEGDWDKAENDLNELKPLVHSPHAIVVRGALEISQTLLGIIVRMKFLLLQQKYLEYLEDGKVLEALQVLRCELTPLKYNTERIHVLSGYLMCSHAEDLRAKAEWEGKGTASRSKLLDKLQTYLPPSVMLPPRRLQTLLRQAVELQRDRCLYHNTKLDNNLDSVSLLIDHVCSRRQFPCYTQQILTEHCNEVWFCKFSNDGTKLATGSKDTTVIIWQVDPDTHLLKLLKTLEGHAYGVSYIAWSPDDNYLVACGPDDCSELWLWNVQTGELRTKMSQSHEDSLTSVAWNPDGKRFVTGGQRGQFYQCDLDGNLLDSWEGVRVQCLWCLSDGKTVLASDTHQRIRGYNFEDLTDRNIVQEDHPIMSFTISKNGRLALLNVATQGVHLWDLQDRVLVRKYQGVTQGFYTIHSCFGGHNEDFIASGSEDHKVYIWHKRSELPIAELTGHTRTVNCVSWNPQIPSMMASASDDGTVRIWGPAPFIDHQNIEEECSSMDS
FLAG-WDR1-231 (in HEK293): residues 1-231 of Q9H7D7
FLAG-WDR1-122 (in HEK293): residues 1-122 of Q9H7D7
FLAG-WDR123-661 (in HEK293): residues 123-661 of Q9H7D7
FLAG-WDR232-661 (in HEK293): residues 232-661 of Q9H7D7
FLAG-WDR295-661 (in HEK293): residues 295-661 of Q9H7D7
UniProt P31751: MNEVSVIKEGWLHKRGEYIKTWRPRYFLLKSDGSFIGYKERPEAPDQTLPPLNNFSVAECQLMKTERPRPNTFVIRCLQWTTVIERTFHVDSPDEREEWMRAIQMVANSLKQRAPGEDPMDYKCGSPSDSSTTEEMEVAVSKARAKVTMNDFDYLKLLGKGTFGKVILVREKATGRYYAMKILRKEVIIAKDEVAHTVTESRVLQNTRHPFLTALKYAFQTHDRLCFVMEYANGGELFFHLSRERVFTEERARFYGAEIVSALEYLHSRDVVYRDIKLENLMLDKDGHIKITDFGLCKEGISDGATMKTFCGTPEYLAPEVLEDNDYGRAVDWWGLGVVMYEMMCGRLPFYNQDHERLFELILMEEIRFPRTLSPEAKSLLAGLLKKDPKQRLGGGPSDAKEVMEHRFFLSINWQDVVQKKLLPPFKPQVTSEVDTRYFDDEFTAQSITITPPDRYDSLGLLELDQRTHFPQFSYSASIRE
UniProt P42338: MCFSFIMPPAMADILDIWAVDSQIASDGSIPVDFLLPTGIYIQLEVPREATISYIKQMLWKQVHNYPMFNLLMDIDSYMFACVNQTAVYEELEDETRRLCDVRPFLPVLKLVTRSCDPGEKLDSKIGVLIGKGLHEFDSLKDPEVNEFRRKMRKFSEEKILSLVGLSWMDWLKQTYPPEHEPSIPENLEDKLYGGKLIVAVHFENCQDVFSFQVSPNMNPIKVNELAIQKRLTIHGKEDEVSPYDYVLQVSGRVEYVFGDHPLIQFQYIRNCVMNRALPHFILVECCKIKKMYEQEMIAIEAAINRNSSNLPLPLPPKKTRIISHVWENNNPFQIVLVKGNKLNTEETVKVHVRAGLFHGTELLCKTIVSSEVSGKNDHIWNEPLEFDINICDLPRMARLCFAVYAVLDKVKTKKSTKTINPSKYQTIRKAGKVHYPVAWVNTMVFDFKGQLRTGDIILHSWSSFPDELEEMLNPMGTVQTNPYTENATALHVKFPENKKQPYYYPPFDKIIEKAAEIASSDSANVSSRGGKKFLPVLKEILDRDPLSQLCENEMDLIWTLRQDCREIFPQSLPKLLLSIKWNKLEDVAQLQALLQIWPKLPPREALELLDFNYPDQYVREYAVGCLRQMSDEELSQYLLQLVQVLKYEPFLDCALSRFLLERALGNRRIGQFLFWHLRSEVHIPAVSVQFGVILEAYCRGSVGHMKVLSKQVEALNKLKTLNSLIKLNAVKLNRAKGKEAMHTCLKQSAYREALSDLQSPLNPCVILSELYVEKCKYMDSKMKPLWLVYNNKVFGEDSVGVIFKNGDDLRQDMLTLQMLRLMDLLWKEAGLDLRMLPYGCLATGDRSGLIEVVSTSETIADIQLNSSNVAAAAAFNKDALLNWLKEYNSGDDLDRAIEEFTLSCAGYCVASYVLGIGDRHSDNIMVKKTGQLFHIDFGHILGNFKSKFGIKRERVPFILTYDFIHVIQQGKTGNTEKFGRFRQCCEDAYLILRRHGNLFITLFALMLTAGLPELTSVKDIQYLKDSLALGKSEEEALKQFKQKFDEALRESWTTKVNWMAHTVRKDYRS
UniProt P31749: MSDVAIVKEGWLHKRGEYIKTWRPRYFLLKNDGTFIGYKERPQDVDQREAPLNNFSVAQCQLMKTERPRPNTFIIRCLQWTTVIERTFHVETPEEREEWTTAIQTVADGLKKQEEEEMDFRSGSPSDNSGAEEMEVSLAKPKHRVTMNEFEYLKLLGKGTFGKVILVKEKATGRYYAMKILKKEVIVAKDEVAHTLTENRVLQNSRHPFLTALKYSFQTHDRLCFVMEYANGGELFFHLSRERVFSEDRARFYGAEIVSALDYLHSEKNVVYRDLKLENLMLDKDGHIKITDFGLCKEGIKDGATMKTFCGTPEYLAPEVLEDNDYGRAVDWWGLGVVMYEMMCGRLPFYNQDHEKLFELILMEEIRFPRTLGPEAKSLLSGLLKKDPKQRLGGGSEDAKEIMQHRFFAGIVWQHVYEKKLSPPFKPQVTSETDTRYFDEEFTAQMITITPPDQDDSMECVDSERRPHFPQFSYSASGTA

Legend:
[1] = molecular target: FLAG-tagged WDR26 (human) (UniProt Q9H7D7); test: co-IP; MDA-MB231 cells transduced with adenovirus for FLAG-GFP or FLAG-WDR26, serum-starved overnight, unstimulated or stimulated with LPA (10 μM) for the indicated time; lysed in modified RIPA buffer (without SDS); immunoprecipitation with anti-FLAG, endogenous proteins detected by blot
[2] = molecular target: FLAG-WDR123-661 (in HEK293) (human) (UniProt Q9H7D7); test: co-IP; FLAG-GFP, FLAG-WDR26 or its deletion mutants transiently co-expressed with HA-AKT2 in HEK293 cells; immunoprecipitation with anti-FLAG
[3] = molecular target: FLAG-WDR232-661 (in HEK293) (human) (UniProt Q9H7D7); test: as above
[4] = molecular target: FLAG-WDR1-231 (in HEK293) (human) (UniProt Q9H7D7); test: as above
[5] = molecular target: FLAG-WDR295-661 (in HEK293) (human) (UniProt Q9H7D7); test: as above
[6] = molecular target: FLAG-WDR1-122 (in HEK293) (human) (UniProt Q9H7D7); test: as above
HA-AKT2 = HA-AKT2 (UniProt P31751); test: co-IP; HEK293 cells transiently transfected with HA-AKT2 and FLAG-Gβ1γ2 or Myc-WDR26, or both; lysates immunoprecipitated with anti-HA

## PI3K subunit p110β (endogenous) (from UniProt P42338 1-1070) (enzyme)
[1]
  binding: binds

## AKT1 (endogenous) (from UniProt P31749 1-480) (enzyme)
[1]
  binding: no binding

## HA-AKT2 (from UniProt P31751 1-481) (enzyme)
[2]
  binding: binds
[3]
  binding: binds
[4]
  binding: binds
[5]
  binding: binds
[6]
  binding: no binding

## Myc-WDR26 (in HEK293) (from UniProt Q9H7D7 1-661)
HA-AKT2
  binding: binds

## AKT2 (endogenous) (from UniProt P31751 1-481) (enzyme)
[1]
  binding: binds

B1: p110δ (endogenous) (enzyme, UniProt O00329 1-1044)
chain: MPPGVDCPMEFWTKEENQSVVVDFLLPTGVYLNFPVSRNANLSTIKQLLWHRAQYEPLFHMLSGPEAYVFTCINQTAEQQELEDEQRRLCDVQPFLPVLRLVAREGDRVKKLINSQISLLIGKGLHEFDSLCDPEVNDFRAKMCQFCEEAAARRQQLGWEAWLQYSFPLQLEPSAQTWGPGTLRLPNRALLVNVKFEGSEESFTFQVSTKDVPLALMACALRKKATVFRQPLVEQPEDYTLQVNGRHEYLYGSYPLCQFQYICSCLHSGLTPHLTMVHSSSILAMRDEQSNPAPQVQKPRAKPPPIPAKKPSSVSLWSLEQPFRIELIQGSKVNADERMKLVVQAGLFHGNEMLCKTVSSSEVSVCSEPVWKQRLEFDINICDLPRMARLCFALYAVIEKAKKARSTKKKSKKADCPIAWANLMLFDYKDQLKTGERCLYMWPSVPDEKGELLNPTGTVRSNPNTDSAAALLICLPEVAPHPVYYPALEKILELGRHSECVHVTEEEQLQLREILERRGSGELYEHEKDLVWKLRHEVQEHFPEALARLLLVTKWNKHEDVAQMLYLLCSWPELPVLSALELLDFSFPDCHVGSFAIKSLRKLTDDELFQYLLQLVQVLKYESYLDCELTKFLLDRALANRKIGHFLFWHLRSEMHVPSVALRFGLILEAYCRGSTHHMKVLMKQGEALSKLKALNDFVKLSSQKTPKPQTKELMHLCMRQEAYLEALSHLQSPLDPSTLLAEVCVEQCTFMDSKMKPLWIMYSNEEAGSGGSVGIIFKNGDDLRQDMLTLQMIQLMDVLWKQEGLDLRMTPYGCLPTGDRTGLIEVVLRSDTIANIQLNKSNMAATAAFNKDALLNWLKSKNPGEALDRAIEEFTLSCAGYCVATYVLGIGDRHSDNIMIRESGQLFHIDFGHFLGNFKTKFGINRERVPFILTYDFVHVIQQGKTNNSEKFERFRGYCERAYTILRRHGLLFLHLFALMRAAGLPELSCSKDIQYLKDSLALGKTEEEALKHFRVKFNEALRESWKTKVNWLAHNVSKDNRQ
[1]
  binding: no binding
